Test results: a collection of fitness landscapes (doi:10.1016/j.celrep.2020.107928)
Whole data set: some 81,000 sequences, median “one-hybrid fitness for binding parS DNA” near -0.17, cut for the highest 2% near 0.51. Some of the results follow.

B1: Caulobacter ParB omega fusion; a variant is named by its letters at X, in order, B8GW30 (parent)
chain: MESVVVGEPGMSEGRRGLGRGLSALLGEVDAAPAQAPGEQLGGSREAPIEILQRNPDQPRRTFREEDLEDLSNSIREKGVLQPILVRPSPDTAGEYQIVAGERAWRAAQRAGLKTVPIMVRELDDLAVLEIGIIENVQRADLNVLEEALSYKVLMEKFERTQENIAQTIGKSXSHVANXMRLLXLPDEVQSYLVSGELTAXHARAIAAAADPVALAKQIIEGGLSVRETEALARKAPNLSAGKSKGGRPPRVKDTDTQALESDLSSVLGLDVSIDHRGSTGTLTITYATLEQLDDLCNRLTRGI

Variants of: B1
Assay: one-hybrid fitness for binding parS DNA (scaled: cognate 1, non-cognate 0); higher = stronger binding
Details: with parS DNA site
Procedure, shortened: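 Caulobacter ParB libraries with four specificity codons randomised were screened by bacterial one-hybrid selection in the E. coli USO strain, using a HIS3 reporter whose site lies 19 bp from the promoter. Selection ran for 48 hours at 37°C on M9 lacking histidine, with 0.1 mM IPTG and 5 mM 3-AT. Plasmids were Illumina-sequenced before and after selection, three replicate libraries were pooled, and variants with under 10 reads were dropped. Fitness is the log change in each variant's read ratio to wild type, rescaled against the cognate and non-cognate sites.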

Variant	one-hybrid fitness for binding parS DNA
CTQV	≤ 0.2
GVIV	≤ 0.2
DMDL	≤ 0.2
ESPG	≤ 0.2
PFEG	≤ 0.2
RDIS	≤ 0.2
ICKC	≤ 0.2
EEVS	≤ 0.2
IARG	≤ 0.2
ACSM	≤ 0.2
RCIN	0.372
VQLT	≤ 0.2
DPHK	≤ 0.2
PRCI	≤ 0.2
QCGW	≤ 0.2
PPCR	≤ 0.2
NAVR	≤ 0.2
RIAS	1.04
RGYA	0.225
DPEK	≤ 0.2
CLER	≤ 0.2
TADT	≤ 0.2
FRSL	≤ 0.2
QYGT	≤ 0.2
IPTW	≤ 0.2

Variant	one-hybrid fitness for binding parS DNA
NIER	≤ 0.2
QTFM	≤ 0.2
SADT	≤ 0.2
TARH	≤ 0.2
QQIY	≤ 0.2
FKPG	≤ 0.2
LSMA	≤ 0.2
RTEG	0.893
RDDL	≤ 0.2
SDFR	≤ 0.2
SPKR	≤ 0.2
NTHT	≤ 0.2
VSKN	≤ 0.2
HYPA	≤ 0.2
TNTI	≤ 0.2
PKIT	≤ 0.2
KKMT	≤ 0.2
AGLC	≤ 0.2
CFTT	≤ 0.2
MSSD	≤ 0.2
QSMK	≤ 0.2
KTRS	≤ 0.2
VSWG	≤ 0.2
GTVG	≤ 0.2
RKWA	0.58

Variant	one-hybrid fitness for binding parS DNA
QADY	≤ 0.2
VKAQ	≤ 0.2
TSPK	≤ 0.2
CTMS	≤ 0.2
QTWW	≤ 0.2
LASA	≤ 0.2
TTRI	≤ 0.2
RDDD	≤ 0.2
QMTF	≤ 0.2
ASLI	≤ 0.2
TCVC	≤ 0.2
MSCC	≤ 0.2
ETNM	≤ 0.2
TWNF	≤ 0.2
AMTP	≤ 0.2
HDPV	≤ 0.2
SQQL	≤ 0.2
QINS	≤ 0.2
ALKK	≤ 0.2
KART	≤ 0.2
VYGR	≤ 0.2
ENTT	≤ 0.2
VHWS	≤ 0.2
CNMC	≤ 0.2
RNAK	≤ 0.2

Variant	one-hybrid fitness for binding parS DNA
RANQ	≤ 0.2
AVAI	≤ 0.2
QMRT	≤ 0.2
SHPL	≤ 0.2
QKHL	≤ 0.2
PTAL	≤ 0.2
RNLK	≤ 0.2
SQAT	≤ 0.2
VSRL	≤ 0.2
FTRA	≤ 0.2
QQSR	≤ 0.2
FSRE	≤ 0.2
DLTA	≤ 0.2
PYHG	≤ 0.2
YYKN	≤ 0.2
SWAM	≤ 0.2
EAYQ	≤ 0.2
SYNM	≤ 0.2
AMVN	≤ 0.2
SEAL	≤ 0.2
DSAG	≤ 0.2
QSAG	≤ 0.2
VFTT	≤ 0.2
WVSS	≤ 0.2
YEVT	≤ 0.2

Variant	one-hybrid fitness for binding parS DNA
FPQR	≤ 0.2
QMDC	≤ 0.2
TRTN	≤ 0.2
DTEV	≤ 0.2
KLWA	≤ 0.2
GHWG	≤ 0.2
RCRH	0.293
SPSE	≤ 0.2
RCDG	0.959
ANPY	≤ 0.2
HTCG	≤ 0.2
VRNY	≤ 0.2
ASTT	≤ 0.2
LNGL	≤ 0.2
LQYD	≤ 0.2
HHTV	≤ 0.2
QTCQ	≤ 0.2
ATLQ	≤ 0.2
MNGG	≤ 0.2
MLIC	≤ 0.2
FEYF	≤ 0.2
GFHI	≤ 0.2
AHRP	≤ 0.2
TKDL	≤ 0.2
RICL	≤ 0.2

Variant	one-hybrid fitness for binding parS DNA
HVHD	≤ 0.2
YCNS	≤ 0.2
SDKV	≤ 0.2
CSLA	≤ 0.2
SGIG	≤ 0.2
PRAF	≤ 0.2
CVSV	≤ 0.2
RDEK	0.207
LDGI	≤ 0.2
QNKK	≤ 0.2
RPTN	≤ 0.2
CKSG	≤ 0.2
CPHF	≤ 0.2
RPMC	≤ 0.2
GQDL	≤ 0.2
FLVV	≤ 0.2
EVNT	≤ 0.2
QWVT	≤ 0.2
RGLK	≤ 0.2
AVQE	≤ 0.2
KRTD	≤ 0.2
GTKR	≤ 0.2
DAQS	0.22
TQAM	≤ 0.2
NLAT	≤ 0.2

Variant	one-hybrid fitness for binding parS DNA
HRRS	0.455
SRYR	≤ 0.2
CSKG	≤ 0.2
LAAP	≤ 0.2
LRHF	≤ 0.2
KRCV	≤ 0.2
LAHA	≤ 0.2
ITPE	≤ 0.2
YFDM	≤ 0.2
ITIG	≤ 0.2
HCRS	≤ 0.2
GACC	≤ 0.2
KIPS	≤ 0.2
VCAW	≤ 0.2
RYGK	≤ 0.2
EYDT	≤ 0.2
GFRG	≤ 0.2
AYRC	≤ 0.2
HRCY	≤ 0.2
VNPT	≤ 0.2
VENY	≤ 0.2
KKSK	≤ 0.2
LTTY	≤ 0.2
QGPL	≤ 0.2
CALG	≤ 0.2

Variant	one-hybrid fitness for binding parS DNA
LIHS	≤ 0.2
FINV	≤ 0.2
SLVK	≤ 0.2
QYQY	≤ 0.2
QYAA	≤ 0.2
YYHT	≤ 0.2
YPTE	≤ 0.2
TMTG	≤ 0.2
FHAF	≤ 0.2
PSWW	≤ 0.2
LLKG	≤ 0.2
VFHV	≤ 0.2
MLAM	≤ 0.2
IMTS	≤ 0.2
DLLN	≤ 0.2
KGMA	≤ 0.2
REAA	≤ 0.2
CRYY	≤ 0.2
LPKT	≤ 0.2
LHPI	≤ 0.2
